The other results are listed elsewhere or left out.
How the values were obtained:
Experiment in all cases: glycan array binding signal (z-score within array); higher = stronger binding
Details in all cases: glycan notation: IUPAC condensed, linker removed
[1] = molecular target: Gal(b1-4)GlcNAc(b1-6)GalNAc
In short: (§1)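 Arrays were curated from the Consortium for Functional Glycomics database, 3228 in total, and kept only where the protein sequence was available. Binding is expressed as a within-array Z-score. This score was averaged across arrays of the same protein sequence at different concentrations or buffers and across linkers, and negative values can be read as non-binding.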

[2] = molecular target: Gal(b1-4)GlcNAc(b1-6)[Gal(b1-3)]GalNAc
In short: as §1

[3] = molecular target: Gal(b1-4)GlcNAc(b1-6)[Gal(b1-4)GlcNAc(b1-3)]GalNAc
In short: as §1

[4] = molecular target: Gal(b1-4)GlcNAc6P
In short: as §1

[5] = molecular target: Gal(b1-6)Gal
In short: as §1

[6] = molecular target: Gal3S(b1-3)GalNAc
In short: as §1

[7] = molecular target: Gal3S(b1-3)GlcNAc
In short: as §1

[8] = molecular target: Gal3S(b1-3)[Fuc(a1-4)]GlcNAc
In short: as §1

[9] = molecular target: Gal3S(b1-4)Glc
In short: as §1

[10] = molecular target: Gal3S(b1-4)Glc6S
In short: as §1

[11] = molecular target: Gal3S(b1-4)GlcNAc
In short: as §1

[12] = molecular target: Gal3S(b1-4)[Fuc(a1-3)]Glc6S
In short: as §1

[13] = molecular target: Gal3S(b1-4)[Fuc(a1-3)]GlcNAc
In short: as §1

[14] = molecular target: Gal3S(b1-4)[Fuc(a1-3)]GlcNAc6S
In short: as §1

[15] = molecular target: Gal3S4S(b1-4)GlcNAc
In short: as §1

[16] = molecular target: Gal3S6S(b1-4)GlcNAc
In short: as §1

[17] = molecular target: Gal3S6S(b1-4)GlcNAc6S
In short: as §1

[18] = molecular target: Gal4S(b1-4)GlcNAc
In short: as §1

[19] = molecular target: Gal4S6S(b1-4)GlcNAc
In short: as §1

[20] = molecular target: Gal6P(b1-4)GlcNAc
In short: as §1

[21] = molecular target: Gal6S(b1-3)GlcNAc
In short: as §1

[22] = molecular target: Gal6S(b1-3)GlcNAc6S
In short: as §1

[23] = molecular target: Gal6S(b1-4)Glc
In short: as §1

[24] = molecular target: Gal6S(b1-4)Glc6S
In short: as §1

[25] = molecular target: Gal6S(b1-4)GlcNAc
In short: as §1

[26] = molecular target: Gal6S(b1-4)GlcNAc6S
In short: as §1

[27] = molecular target: GalNAc(a1-3)Gal
In short: as §1

[28] = molecular target: GalNAc(a1-3)GalNAc
In short: as §1

[29] = molecular target: GalNAc(a1-3)GalNAc(b1-3)Gal(a1-4)Gal(b1-4)Glc
In short: as §1

[30] = molecular target: GalNAc(a1-3)GalNAc(b1-3)Gal(a1-4)Gal(b1-4)GlcNAc
In short: as §1

[31] = molecular target: GalNAc(b1-3)Gal
In short: as §1

[32] = molecular target: GalNAc(b1-3)Gal(a1-4)Gal(b1-4)GlcNAc
In short: as §1

[33] = molecular target: GalNAc(b1-3)Gal(a1-4)Gal(b1-4)GlcNAc(b1-3)Gal(b1-4)Glc
In short: as §1

[34] = molecular target: GalNAc(b1-3)Gal(a1-6)Gal(b1-4)Glc
In short: as §1

[35] = molecular target: GalNAc(b1-3)GalNAc
In short: as §1

[36] = molecular target: GalNAc(b1-3)GlcNAc
In short: as §1

[37] = molecular target: GalNAc(b1-4)Gal(b1-4)Glc
In short: as §1

[38] = molecular target: GalNAc(b1-4)GlcNAc
In short: as §1

B1: GS7807H-bfa-490-18-490 (Bacteroides fragilis) (protein)
chain: GNLEEMNIDPDNATQTHPKLLLTQICMNAFKRGTDGMYATKKVIQADGESADQYYKWTRGSFGYYDNLRNVQKMGEEAERVNAPVYTALTKFFRAYYFYELTLRFGDIPYSQALKGEKEEIYTPEYDAQEDVFAGILQELREADEILANDASVIDGDIIYNGNSTQWRKLINSFRLKVLMTLSNHTTVGNINIASEFKNIATNSPLMNSLADNGQLVYLDQQGNRYPQFNAQWSGYYMDDTFIQRMRERRDPRLFIFSAQTNKGKTEGKPIDDFSSYEGGDPAAPYSDAIIKVSEGTISPINDRFRTDPIVEPTMLMGYAELQQILAEAVVRGWISGNAQTYYEKGIRASFSFYETHAKDYAGYLNENAVAQYLKEPLVDFTQASGTEEQIERIIMQKYLVTFYQGNWDSFYEQLRTGYPDFRRPAGTEIPKRWMYPQGEYDNNGTNVETAITRQFGAGNDKINQATWWQKKS
glycan array binding signal (z-score) [1]: -0.182 | glycan array binding signal (z-score) [2]: -0.405 | glycan array binding signal (z-score) [3]: -0.385 | glycan array binding signal (z-score) [4]: 0.452 | glycan array binding signal (z-score) [5]: -0.652 | glycan array binding signal (z-score) [6]: -0.596 | glycan array binding signal (z-score) [7]: 0.043 | glycan array binding signal (z-score) [8]: 0.008 | glycan array binding signal (z-score) [9]: 1.21 | glycan array binding signal (z-score) [10]: -0.637 | glycan array binding signal (z-score) [11]: 0.181 | glycan array binding signal (z-score) [12]: 0.47 | glycan array binding signal (z-score) [13]: 0.737 | glycan array binding signal (z-score) [14]: -0.198 | glycan array binding signal (z-score) [15]: -0.441 | glycan array binding signal (z-score) [16]: -0.178 | glycan array binding signal (z-score) [17]: 0.21 | glycan array binding signal (z-score) [18]: -0.642 | glycan array binding signal (z-score) [19]: 0.142 | glycan array binding signal (z-score) [20]: -0.329 | glycan array binding signal (z-score) [21]: 0.653 | glycan array binding signal (z-score) [22]: 1.52 | glycan array binding signal (z-score) [23]: 0.65 | glycan array binding signal (z-score) [24]: 0.705 | glycan array binding signal (z-score) [25]: -0.439 | glycan array binding signal (z-score) [26]: -0.175 | glycan array binding signal (z-score) [27]: 0.174 | glycan array binding signal (z-score) [28]: -0.459 | glycan array binding signal (z-score) [29]: -0.749 | glycan array binding signal (z-score) [30]: 0.125 | glycan array binding signal (z-score) [31]: -0.859 | glycan array binding signal (z-score) [32]: -0.073 | glycan array binding signal (z-score) [33]: -0.443 | glycan array binding signal (z-score) [34]: 0.474 | glycan array binding signal (z-score) [35]: -0.343 | glycan array binding signal (z-score) [36]: -0.382 | glycan array binding signal (z-score) [37]: -0.429 | glycan array binding signal (z-score) [38]: 0.462
